Patent publication US20100316570A1 (University of Pennsylvania, published 2010)

Target: SIRPα on human-derived THP-1 macrophages (human, UniProt P78324 31-504)
Test: cell-based or functional assay

Sequence of UniProt P78324 (P78324 31-504): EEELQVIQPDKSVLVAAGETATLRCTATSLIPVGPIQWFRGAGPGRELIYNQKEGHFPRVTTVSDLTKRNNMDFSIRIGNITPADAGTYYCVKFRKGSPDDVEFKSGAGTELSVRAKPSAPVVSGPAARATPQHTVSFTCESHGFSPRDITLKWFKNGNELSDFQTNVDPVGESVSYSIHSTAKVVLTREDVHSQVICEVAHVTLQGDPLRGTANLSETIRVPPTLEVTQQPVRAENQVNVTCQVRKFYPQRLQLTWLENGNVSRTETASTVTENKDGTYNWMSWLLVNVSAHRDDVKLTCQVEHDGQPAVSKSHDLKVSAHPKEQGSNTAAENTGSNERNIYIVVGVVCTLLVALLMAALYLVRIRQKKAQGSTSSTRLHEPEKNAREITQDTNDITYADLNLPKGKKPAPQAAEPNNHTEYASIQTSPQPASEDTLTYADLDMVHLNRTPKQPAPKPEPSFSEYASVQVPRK

B1: human CD47 on human red blood cells (ligand)
chain: not shown
- enrichment of SIRPα at the phagocytic synapse, human-RBC contacts compared with sheep RBCs or CD47-blocked human RBCs: 5 fold
- nonmuscle myosin IIA localization to the phagocytic synapse, human RBCs versus sheep RBCs and CD47-blocked human RBCs: 3.8 fold decrease
- phospho-paxillin delocalization from the phagocytic synapse: 3 fold
- phosphotyrosine at the phagocytic synapse, human RBCs versus sheep RBCs or CD47-blocked human RBCs: 3.2 fold lower
